The campaign covered roughly 48,000 compounds. About 1,200 (2.5%) were called active. About 2% were inconclusive and are not listed.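 How the source made its calls: active means activation of at least 60% and not above a set upper limit (about 1 call in 100 departs from these limits); inconclusive means activation of 40% to 60%, or above that upper limit; inactive means activation under 40%.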 Some of the results follow.
target: Probable G-protein coupled receptor 32 (Homo sapiens) (UniProt O75388); experiment: qHTS for Agonists of Human Resolvin D1 Receptor DRV1; conditions: CHO-K1 GPR32 beta-arrestin PathHunter luminescence, 90 min; at 76.9 µM; hits give high values; zero percent set by DMSO-only wells; further: 0% is about no effect
How it was run: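 CHO-K1 cells stably expressing ProLink-tagged GPR32 and Enzyme Activator-tagged beta-arrestin were seeded at 2,500 cells/well overnight, exposed to compounds for 90 min at 37 °C, then read by beta-Gal complementation chemiluminescence after 1 h detection reagent.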

UniProt O75388, sequence (O75388 whole entry, looked up): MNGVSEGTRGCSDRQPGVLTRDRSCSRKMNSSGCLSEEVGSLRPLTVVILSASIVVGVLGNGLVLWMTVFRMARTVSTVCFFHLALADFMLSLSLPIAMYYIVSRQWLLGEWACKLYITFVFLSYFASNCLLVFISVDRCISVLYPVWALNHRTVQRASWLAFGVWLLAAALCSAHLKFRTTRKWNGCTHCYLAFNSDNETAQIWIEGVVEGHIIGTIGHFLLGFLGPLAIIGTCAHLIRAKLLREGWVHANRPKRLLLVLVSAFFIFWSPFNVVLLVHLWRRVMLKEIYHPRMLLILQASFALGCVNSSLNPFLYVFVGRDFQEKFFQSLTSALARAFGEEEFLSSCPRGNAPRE

Compound	activation
CCOC(=O)c1scc(-c2ccccc2)c1S(=O)(=O)N1CCN(c2ccccc2OC)CC1	inactive: -30.5%
Cc1ccc(-c2nc3ccccn3c2Nc2ccc3c(c2)OCO3)o1	inactive: -4.29%
Cc1ccc(NC(=O)C(Cc2ccccc2)n2cccc2)cc1C (configuration not stated)	inactive: 16%
COC(=O)c1ccccc1NC(=O)c1cc2c(-c3ccc(OC)c(OC)c3)nn(C)c2s1	inactive: 13.7%
C=CCC(CC=C)(CNC(=O)C(=O)Nc1ccc(C(=O)OCC)cc1)c1ccccc1	inactive: 1.89%
O=C(/C=C/c1cn(CC(O)CN2CCCCCC2)c2ccccc12)c1ccc(Br)cc1 (configuration not stated)	active: 88%
COc1cccc(NS(=O)(=O)c2ccc3c(c2)CCCN3C(=O)C2CCC2)c1	inactive: 37.2%
Cc1cc2nc(-c3cccc(NC(=O)CSc4ccc(Cl)cc4)c3)oc2cc1C	inactive: -3.7%
CCSc1nnnn1-c1cccc(C(=O)O)c1	inactive: -1.68%
CCOC(=O)c1cc(-c2ccc(C)cc2)n(CC(=O)NC2CCCCCC2)c1C	inactive: -22.4%
CCCN(C(=O)c1cc2c(s1)-c1c(C)cccc1OC2)c1ccc(OCC)cc1	inactive: 5.14%
CC(C)c1ccc(Nc2nc3c(S(=O)(=O)c4ccc(Br)cc4)nnn3c3ccsc23)cc1	inactive: -7.36%
COc1ccc(-c2nn(-c3cccc([N+](=O)[O-])c3)c3c2cnc2cc4c(cc23)OCO4)cc1	inactive: -14.5%
COc1ccc(C2c3[nH]c4ccc(OC)cc4c3CCN2C(=O)Nc2ccccc2)cc1 (configuration not stated)	inactive: -22.5%
Cc1cccc(-c2c3c(=O)n(C)c(=O)n(C)c3c3cnc4ccccc4n23)c1	inactive: -1.32%
O=C(Nc1c(Cl)cccc1Cl)c1cc(-c2cccc(O)c2)on1	active: 105%
Cc1c(NC(=O)Nc2ccc(C#N)cc2)c(=O)n(-c2ccccc2)n1C	inactive: -4.13%
Cc1cccc(C(=O)Nc2ccc(OCc3cc(=O)n4c5c(sc4n3)CCCC5)cc2)c1	inactive: 5.48%
COc1ccccc1Nc1nn2c(=O)c3ccc(C(=O)NC(C)c4ccccc4)cc3nc2s1 (configuration not stated)	inactive: 7.93%
Cc1ccc(NC(=O)Cn2cc(S(=O)(=O)c3ccccc3)c(=O)c3cc4c(cc32)OCO4)cc1	inactive: 1.91%
CCC(=O)Nc1sc2c(c1C(=O)Nc1cccc(C)c1)CCCC2	inactive: 5.81%

Compound	activation
CCc1ccc(NC(=O)C2CCN(S(=O)(=O)c3c(C)noc3/C=C/c3cccs3)CC2)cc1	inactive: -19.1%
CCn1cc(C(=O)NCCOC)c(=O)c2cc(S(=O)(=O)N3CCOCC3)ccc21	inactive: -9.65%
Cc1cccc(NC(=O)CSc2cn(CC(=O)N3CCOCC3)c3ccccc23)c1	inactive: -9.42%
COc1ccc(S(=O)(=O)N(CCc2ccccc2)CC(=O)Nc2cc(C)ccc2C)cc1	inactive: 6.37%
CCOC(=O)C1=C(c2ccccc2)Nc2ncnn2C1c1ccc(Cl)cc1 (configuration not stated)	inactive: -5.47%
O=C(CCC1N=C2c3ccccc3N=C(SCC(=O)Nc3ccccc3F)N2C1=O)NCc1cccs1 (configuration not stated)	inactive: -12.5%
CCSc1nnc2c(n1)OC(c1ccc(OCC(=O)O)cc1)Nc1ccccc1-2 (configuration not stated)	inactive: -28.6%
COc1cc(OC)cc(C(=O)Nc2ccc3oc(-c4ccc(Cl)cc4)nc3c2)c1	inactive: 12.3%
CCc1cccc(CC)c1NC(=O)c1c(C)oc2ccc(O)c(CN3CCOCC3)c12	inactive: -0.191%
COc1cc(Cl)c(C)cc1Nc1c2c(nc3ccccc13)CCC2	inactive: -9.11%
Cc1nc2ccc(S(=O)(=O)N(CC(=O)Nc3ccc(Cl)cc3)Cc3ccccc3)cc2s1	inactive: -9.87%
CCOc1ccccc1CNC(=O)CN1C(=O)CCn2nc(-c3cn(C)c4ccccc34)cc21	inactive: 28.9%
O=C(c1ccc2c(c1)N(Cc1cccc(Cl)c1)C(=O)c1ccccc1S2(=O)=O)N1CCC(Cc2ccccc2)CC1	inactive: -25%
COc1ccc(CNC(=O)c2ccc3c(c2)NC(=O)C(CS(=O)(=O)Cc2ccccc2Cl)N3)cc1 (configuration not stated)	inactive: -20.7%
CCOC(=O)c1cccc(NS(=O)(=O)c2c(C)nc3sc(C)cn3c2=O)c1	inactive: -2.59%
CCOc1ccccc1N(C)C(=O)Cn1cnc2onc(-c3ccc(F)cc3)c2c1=O	inactive: -13.1%
COc1ccccc1-n1ncc2c(=O)[nH]c(SCC(=O)Nc3cccc(F)c3)nc21	inactive: -7.9%
COc1ccc2c(CNCc3cccs3)c(C(=O)O)n(Cc3ccc(F)cc3Cl)c2c1	inactive: 1.35%
CSc1cccc(N2C(=O)N(CC(=O)NCc3ccccc3Cl)c3ccccc3S2(=O)=O)c1	active: 67.1%
Cc1cc(=O)n2c(C(=O)Nc3ccc(F)c(Cl)c3)c(C(=O)Nc3cccc(C)c3C)sc2n1	inactive: -0.695%
Cc1ccc(NC(=O)C(Cc2ccccc2)n2cccc2)c(C)c1 (configuration not stated)	inactive: -20.1%

Compound	activation
CCOc1ccc(C(=O)c2oc3ccccc3c2NC(=O)c2cc(-c3ccccc3)on2)cc1	inactive: 10.8%
Cc1cccc2sc(N(Cc3cccnc3)C(=O)Cc3ccccc3)nc12	inactive: -31.8%
Cc1nnc(SCc2ccccc2Cl)c2cc3occc3n12	inactive: -23%
CC(C)Oc1cccc(C(=O)Nc2ccc(-c3nc4cc(Cl)cc(Cl)c4o3)cc2)c1	inactive: 8.08%
Cc1cc(Nc2ccc(C(C)C)cc2)nc(-n2nc(C)cc2C)n1	inactive: -5.39%
CCCCCn1c(=N)c(S(=O)(=O)c2ccccc2)cc2c(=O)n3cccc(C)c3nc21	inactive: -6.57%
COc1cc(-c2noc(-c3ccc(NC4CCCCC4)c([N+](=O)[O-])c3)n2)cc(OC)c1OC	inactive: 2.24%
Cc1ccc(NC(=O)CSc2nc(-c3cccs3)cc(C(F)(F)F)n2)cc1C	inactive: -6.07%
COc1ccc(C(=O)Nc2nc3ccc(S(=O)(=O)N4CCCC4)cc3s2)cc1	inactive: 5.2%
COc1ccc(CNc2oc(COc3cccc(C)c3)nc2C#N)cc1	inactive: 8.28%
Cn1cc(S(=O)(=O)N2CCCC2)cc1C(=O)Nc1ccc(C(F)(F)F)cc1	inactive: 9.46%
O=C(Nc1ccc(NC(=O)c2ccc(Br)cc2)c(Cl)c1)c1ccc(Br)cc1	inactive: -2%
COc1ccccc1-c1nnc(C2CCN(S(=O)(=O)c3ccccc3)CC2)o1	inactive: 3.92%
COc1cccc2cc(-c3nnc(-c4ccc(Cl)cc4)o3)c(=O)oc12	inactive: -0.317%
CCc1nn(CC(=O)N2CCN(c3cccc(C(F)(F)F)c3)CC2)c(=O)c2cc3occc3n12	inactive: 6.23%
COc1cccc(-c2nc(CS(=O)(=O)CC(=O)NCCCN3CCN(C)CC3)c(C)o2)c1	inactive: -19.1%
COc1cccc(N2CCN(C(=O)Cn3cnc4onc(-c5ccc(F)cc5)c4c3=O)CC2)c1	inactive: 2.6%
CCCCCn1c(=O)[nH]c2cc(C(=O)Nc3ccc(OC)c(OC)c3)ccc2c1=O	inactive: 2.29%
COc1ccc(C)cc1NC(=O)C1CCCN(S(=O)(=O)c2ccc3c(c2)oc(=O)n3C)C1 (configuration not stated)	inactive: -7.39%
Cc1cccc(Cn2c(SCc3ccc(C(=O)NCCc4ccccc4)cc3)nc3cccnc32)c1	inactive: -24.9%
CC(=O)Nc1ccc(S(=O)(=O)N2CCN(c3ccccc3)CC2)cc1	inactive: 23.9%

Compound	activation
CC(=O)Nc1cccc(NC(=O)C2(c3cccs3)CCOCC2)c1	inactive: 3.14%
Cc1ccc(SCc2nc(-c3ccc(C(=O)NCc4ccccc4Cl)cc3)oc2C)cc1	inactive: -15.3%
Cn1c(=O)c(=O)n(C)c2cc(N3CCCC3)c(NC(=O)c3ccc(C(C)(C)C)cc3)cc21	inactive: -10.6%
COc1cccc(CNC(=O)CN(c2ccc(C(C)C)cc2)S(=O)(=O)c2c(C)n[nH]c2C)c1	active: 70.8%
CCOC(=O)CC(=O)CSc1nc2ccccc2c(=O)n1CCc1ccccc1	inactive: -20.2%
COc1cccc(-c2nnc3n(CCc4ccccc4)c(=O)c4ccccc4n23)c1O	active: 77.1%
COC(=O)c1c(NC(=O)c2nc(SCc3ccc(C)cc3)ncc2Cl)sc2c1CCCC2	inactive: -7.76%
COc1ccc(NC(=O)Cn2c(=O)n(CCC(=O)NCCc3ccc(OC)c(OC)c3)c(=O)c3ccccc32)cc1Cl	inactive: 5.58%
CCCN1C(=O)CN(C2CCCCC2)C(=O)C1c1ccc(OC)c(OC)c1 (configuration not stated)	inactive: 7.57%
CCCCCNS(=O)(=O)c1ccc(N2CCCCS2(=O)=O)cc1	inactive: 12.9%
O=C(NC1CC1)c1ccc(Cn2c(SCc3ccccc3F)nc3cccnc32)cc1	inactive: -1.95%
Cc1ccc2c(=O)cc(C(=O)Nc3ccc(S(=O)(=O)Nc4onc(C)c4C)cc3)oc2c1	inactive: -1.49%
COc1cccc([C@@H]2Nc3ccc(C(=O)O)cc3[C@@H]3C=CC[C@@H]32)c1OC	inactive: -13.1%
Cc1cccc(-n2ncc(C(=O)N3CCN(C(=O)c4ccco4)CC3)c2C2CCN(C(=O)OC(C)(C)C)CC2)c1	inactive: -10.5%
Cc1ccc2c(c1)c(=O)c(C(=O)c1ccncc1)cn2CC(=O)Nc1ccc(C(C)C)cc1	inactive: -6.87%
CC(NC(=O)C(=O)Nc1c2c(nn1-c1ccccc1)CSC2)c1ccccc1 (configuration not stated)	inactive: -21.5%
COc1cccc(NC(=O)Cn2nc3c4ccccc4n(Cc4cccc(F)c4)cc-3c2=O)c1	inactive: 4.81%
Cc1nn(CCC(=O)NCc2ccc(N(C)C)cc2)c(=O)c2nn(-c3ccccc3)c(C)c12	inactive: -4.46%
Cc1ccc(N2CC(NC(=O)c3ccc(Br)o3)CC2=O)cc1C (configuration not stated)	inactive: -3.81%

From PubChem BioAssay AID1346428 (National Center for Advancing Translational Sciences (NCATS), 2018)
